The results in this text go back to ChEMBL document CHEMBL4888484, “Replenishing the malaria drug discovery pipeline: Screening and hit evaluation of the MMV Hit Generation Library 1 (HGL1) against asexual blood stage Plasmodium falciparum ,using a nano luciferase reporter read-out” (2022).

The term % Inhibition denotes the change of the read-out against control, counted positive when it falls.

In all, about 150,000 compounds went through this assay and about 540 (0.36%) showed an effect of 50% or more. This is one part of the list.

For this experiment, the system named is Plasmodium falciparum. Kind of experiment: Primary screen in NF54 nanoGlo assay, in single point, at 2uM, 72h; a lower Z score goes with more inhibition. In kind it is functional, Erythrocyte. The conditions noted are these: timepoint 72 hour.
On to `Cn1ccc([C@H]2CCCN(S(=O)(=O)CCC(F)(F)F)C2)n1`, for which the “% Inhibition” value is given as -8% and the Z score stood at 0.92.

With `C[C@@H](c1ccccc1F)N1CCC(c2nnc3n2CCC3)CC1`, the “% Inhibition” value is given as -1% and the Z score stood at 0.12.

Regarding `CCC[C@]1(CO)CCCN(C(=O)c2ccc3[nH]c(CO)nc3c2)C1`, the “% Inhibition” value is -2% and the Z score was 0.26.

Regarding `COc1cc2c(-c3ccccc3)c(C)oc2cc1CNc1ccc(F)cc1`, the “% Inhibition” value came out at 1% and the Z score was -0.12.

Consider `Fc1ccccc1OCCn1nnc([C@@]2(C(F)(F)F)CCCN2)n1`, for which the “% Inhibition” value is listed as -1% and the Z score was determined as 0.1.

Consider `CC(C)(C)OC(=O)[C@@]12CCC[C@H]1CN(C(=O)c1nccnc1N)C2`, for which the “% Inhibition” value was -22% and the Z score was 3.43.

For `CC(=O)N1C[C@H]2CN(C(=O)Cc3cccs3)CC[C@@]2(c2nc(C)n[nH]2)C1`, the “% Inhibition” value is recorded as -5% and the Z score stood at 0.78.

For `O=C(Nc1ccc(Cl)c(OC(F)F)c1)N[C@H]1CC[C@H](O)CC1`, the “% Inhibition” value is listed as 7% and the Z score is given as -0.92.

In the case of `Cc1ccnc(NC2CCCCCC2)n1`, the “% Inhibition” value was -9% and the Z score is listed as 1.07.

For the compound `CC(=O)Nc1cc(C)ccc1OC(C)=O`, the “% Inhibition” value is -8% and the Z score came to 1.07.

With `O=C(NCc1cncc(-c2ccoc2)c1)c1ccc(Cl)cc1Cl`, the “% Inhibition” value is given as 15% and the Z score was -1.9.

Regarding `Cc1cnn(CCCNC(=O)NCc2sc(C)nc2C)c1`, the “% Inhibition” value is listed as -1% and the Z score was determined as 0.11.

Take `COCCc1noc(CNC(=O)Nc2cccc3c4c(oc23)CCCC4)n1`: the “% Inhibition” value was -1% and the Z score amounted to 0.07.

On to `O=C(NCCc1ccccc1)Nc1cnc2ccccn2c1=O`, for which the “% Inhibition” value was -7% and the Z score is recorded as 1.12.

`CCC(C)C1NC2(CCN(S(=O)(=O)c3ccc(F)cc3)CC2)N(CCCOC)C1=O` (stereo unspecified): the “% Inhibition” value is recorded as -15% and the Z score was 1.79.

Regarding `CCCCNc1ccc(S(=O)(=O)N2CCOCC2)cc1NCC(=O)Nc1ccc2c(c1)CCC2`, the “% Inhibition” value was -29% and the Z score is reported as 3.38.

Take `COCCNC(=O)CNC(=O)CN1C(=O)c2ccccc2Oc2ncccc21`: the “% Inhibition” value is given as -2% and the Z score was 0.34.

Take `CC(C)Cn1cc(C(=O)N2CCOC[C@@H]2CC(=O)c2ccco2)cn1`: the “% Inhibition” value is recorded as 2% and the Z score was -0.22.

Take `CCc1c(C)nn(CC(=O)N2CCN(c3ccnc4nncn34)CC2)c1C`: the “% Inhibition” value is reported as -2% and the Z score is listed as 0.31.

Consider `COc1ccc(S(=O)(=O)N2C[C@H]3CN(C(=O)Nc4ccccc4C)C[C@@H](C2)O3)cc1`, for which the “% Inhibition” value was -6% and the Z score worked out at 0.52.

Consider `Cc1ccc(OCC[C@H]2CCN(C(=O)CC(F)(F)F)C2)cc1`, for which the “% Inhibition” value is -5% and the Z score stood at 1.03.

Take `O=C(NCCCc1cnoc1)c1ccoc1`: the “% Inhibition” value was -8% and the Z score was 1.2.

For `CCN1CCO[C@H](C(=O)N[C@H]2CC[C@H](NC(=O)C3(C)CCCCC3)CC2)C1`, the “% Inhibition” value is given as -12% and the Z score worked out at 2.35.

Turning to `COc1ccccc1OC1(C(=O)O)CCN(c2ncnc3[nH]ccc23)CC1`, the “% Inhibition” value stood at 4% and the Z score is -0.58.

Take `Cc1cc(N(C)C)nc(NC(=O)N[C@@H]2C=C[C@H](CO)C2)n1`: the “% Inhibition” value was -10% and the Z score is 0.98.

For the compound `CCN(CC(=O)NCC(=O)OC)c1ccccc1Cl`, the “% Inhibition” value is 0% and the Z score is on record as 0.04.

In the case of `C=CCc1ccccc1O[C@@H](C)/C(N)=N/O`, the “% Inhibition” value stood at 4% and the Z score is on record as -0.64.

On to `O=C(c1cc(C(F)(F)F)n[nH]1)N1CC2(CCCO2)C1C1CC1` (stereo unspecified), for which the “% Inhibition” value came to 1% and the Z score is given as -0.22.

For the compound `COC(=O)[C@]1(C)CN(C(=O)C(C)(O)C(C)C)C[C@H]1C` (stereo partly specified), the “% Inhibition” value was found to be 4% and the Z score is on record as -0.63.

For `CCOc1ncccc1CNC(=O)[C@H]1CCCN(C(=O)c2cccs2)C1`, the “% Inhibition” value is listed as -4% and the Z score is 0.65.

`O[C@@H](CNCc1ccccc1)c1cccs1`: the “% Inhibition” value is given as -5% and the Z score is recorded as 0.47.

Consider `CN1CCC[C@H]1c1nc(C2CN(C(=O)CCCc3ccccc3)C2)no1`, for which the “% Inhibition” value stood at 1% and the Z score is recorded as -0.12.

As to `CCCCOCC(=O)N1CCC2(CCC(=O)N(Cc3cccnc3)C2)CC1`, the “% Inhibition” value was found to be 3% and the Z score was -0.3.

As to `CCc1nc2cc(-c3noc(-c4ccc5cc[nH]c5c4)n3)ccc2o1`, the “% Inhibition” value was 2% and the Z score was -0.18.

Take `CNC(=O)[C@@H](NC(=O)N1CCOC[C@@H]1CC(C)C)C(C)C`: the “% Inhibition” value was -8% and the Z score is reported as 1.28.

For `CCOC1CC1C(=O)NS(=O)(=O)c1cccnc1` (stereo unspecified), the “% Inhibition” value turned out to be 1% and the Z score is given as -0.25.

For the compound `O=S(=O)(Cc1noc(-c2ccsc2)n1)c1cccc(Cl)c1`, the “% Inhibition” value was -6% and the Z score was 1.1.

On to `COc1ccc(C(=O)Nc2nc3c(s2)CN(S(=O)(=O)c2ccc(C)cc2)CC3)c(OC)c1`, for which the “% Inhibition” value is recorded as -14% and the Z score was determined as 1.87.

As for `CCc1nnc(N2CCN(CCCOC)CC2)o1`, the “% Inhibition” value is listed as 12% and the Z score is -1.52.

With `O=C(NCc1ccc(F)cc1)C(=O)NC[C@](O)(c1ccoc1)c1ccco1`, the “% Inhibition” value is given as -8% and the Z score is reported as 1.19.

`CC(=O)N[C@H]1C[C@@H](c2cc(N(C)CCc3cnn(C)c3)nc(C)n2)C1`: the “% Inhibition” value is -6% and the Z score amounted to 0.71.

Consider `O=C(N[C@H]1C[C@@H](c2cc(N3CCOCC3)ncn2)C1)c1cn[nH]c1`, for which the “% Inhibition” value is -8% and the Z score was 1.41.

`CCCCc1nc(N2CCN(S(=O)(=O)c3ccc(F)cc3)CC2)c2c(C)nn(-c3ccccc3)c2n1`: the “% Inhibition” value is on record as -3% and the Z score was 0.4.

For the compound `Brc1ccc(-c2nc(Cn3ccnn3)co2)cc1`, the “% Inhibition” value was -11% and the Z score stood at 1.68.

As to `C[C@H]1Cc2cc(S(=O)(=O)N3CCOCC3)ccc2N1S(=O)(=O)c1ccccc1`, the “% Inhibition” value was -10% and the Z score was 1.67.

Take `Cc1c(N2CCOCC2)c(C)n(Cc2cccc(F)c2)c1C(=O)NCCN1CCOCC1`: the “% Inhibition” value is -3% and the Z score was determined as 0.57.

As to `Cc1noc(CN2CCC3(CC2)C[C@H](c2ccccc2)CN(C2CC2)C3)n1`, the “% Inhibition” value is reported as -1% and the Z score is 0.14.

Take `CCc1nnc2n1CCN(CCc1ccncc1)C2`: the “% Inhibition” value came to 2% and the Z score is given as -0.33.

Consider `CC(Oc1cccc(F)c1)C1=NC(=O)[C@@H]2[C@@H](C)OCCN12` (stereo partly specified), for which the “% Inhibition” value is recorded as -15% and the Z score was 1.34.

For `CC(C)N1C(=O)[C@](C)(C(=O)Nc2ccc(F)cc2)Oc2cccnc21`, the “% Inhibition” value is given as -11% and the Z score came out at 1.86.

In the case of `CCCC(CCC)C(=O)NCc1cn([C@@H]2COC[C@H]2OC)nn1`, the “% Inhibition” value stood at 28% and the Z score was -3.2.

As for `O=C(Cn1nc2ccc(C(=O)NCc3ccccc3)cn2c1=O)NCCc1ccc(Cl)cc1`, the “% Inhibition” value is -16% and the Z score is listed as 1.43.

For the compound `CN(Cc1cnn(Cc2ccccc2)c1)Cn1c(=S)sc2ccccc21`, the “% Inhibition” value is given as -4% and the Z score is given as 0.84.
